From a collection of fitness landscapes (doi:10.1016/j.celrep.2020.107928)
Whole data set: some 81,000 sequences, median “one-hybrid fitness for binding NBS DNA” near -0.1, cut for the highest 2% near 0.36. Some of the results follow.

B1: Caulobacter ParB omega fusion; a variant is named by its letters at X, in order, B8GW30 (parent)
chain: MESVVVGEPGMSEGRRGLGRGLSALLGEVDAAPAQAPGEQLGGSREAPIEILQRNPDQPRRTFREEDLEDLSNSIREKGVLQPILVRPSPDTAGEYQIVAGERAWRAAQRAGLKTVPIMVRELDDLAVLEIGIIENVQRADLNVLEEALSYKVLMEKFERTQENIAQTIGKSXSHVANXMRLLXLPDEVQSYLVSGELTAXHARAIAAAADPVALAKQIIEGGLSVRETEALARKAPNLSAGKSKGGRPPRVKDTDTQALESDLSSVLGLDVSIDHRGSTGTLTITYATLEQLDDLCNRLTRGI

Variants of: B1
Assay: one-hybrid fitness for binding NBS DNA (the Noc-binding site; scaled: cognate 1, non-cognate 0); higher = stronger binding
Details: with NBS DNA site
Summary of the method: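 Pre- and post-selection plasmids were Illumina-sequenced, three replicate libraries were pooled, and any variant with under 10 reads was removed. The libraries were Caulobacter ParB with four specificity codons randomised, selected in E. coli USO through a HIS3 reporter whose site is 19 bp from the promoter. Cells grew 48 hours at 37°C on M9 without histidine, with 0.1 mM IPTG and 5 mM 3-AT. Fitness is the log change in variant-to-wild-type read ratio, rescaled against cognate and non-cognate.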

one-hybrid fitness for binding NBS DNA, 0.23:
WYRR

one-hybrid fitness for binding NBS DNA, ≤ 0.2:
DGLR
CLVI
EEAY
KTAS
WWTL
YRMG
ARHN
NMLW
QCCP
MYYT
AQML
FTPC
KARH
HCCG
TKAG
LRFA
LVVQ
CVCV
RAPC
VFGM
QELI
GRLI
PQHE
VNKR
TVMI
KMSE
WLDW
PHNR
LLLW
QDHA
VIGR
ELCG
FPTR
LWEA
FWTG
FTPA
MADS
SGAS
VHPC
TDKC
KSRK
HAPR
GSIS
LILL
HRDI
TYTY
KTGM
RPQR
TRWY
CFTC
FDKN
CSNG
CLTG
SKSV
ADSV
RPNC
VMDE
RFNP
SSRS
TSTF
RFQN
TNYY
RNWA
NQQK
SNNS
NHPI
SWSN
RNTL
RHPD
HRMT
NRYV
VRLN
VDNP
GRTC
RHYN
EYIR
PLKF
FRTG
ASYF
FLSV
PMYQ
FCKC
YQSS
LIMV
ERAC
KIHT
ITYT
ERRK
QVQQ
IKGR
YDNL
KVTG
LFCG
LPGT
TRPL
VRTA
KSIM
HFRP
STHF
SDVR
DRAA
NSDL
ISSS
KYVN
WYPC
SYKV
IVRC
LGTT
NVPA
LAPS
YSYN
SQPF
GHSL
RSPM
WMMG
LFWV
HCPR
LGMT
HCET
TWYY
LAET
CDVG
AYMT
RHGG
RCMH
QECR
RPHK
QYMP
MVYT
HYSE
GMHN
SSCI
NVWC
EDPG
CSTM
HWHR
PAGI
ETTQ
VCQV
ISSR
PQCS
VKVC
NIPT
RCWC
IFAI
IYIS
WWTR
LLQA
PQSD
GSNK
SAQR
SMFT
FFHT
FKLG
FDGW
CVGN
PNCQ
KRYM
CGYV
LRMR
VDDV
STMT
AFQS
YSII
GFNV
PQWD
VDGG
TIMC
AYRP
EYTC
PVSN
TRSN
RFCF
RLVC
ARNF
LMFF
TESH
AHCG
CNNN
KSEL
NKYT
FHTS
PYYA
WGCF
DCAS
FDPT
VCWS
CLTL
HFSW
TTCF
QMFF
SKQY
PMWG
RVTW
CRPH
SPVR
SAWA
VTDR
SHMS
ACNT
QIQI
NACS
ANVA
RGAG
TLGR
PHNK
RPSF
VMYT
RGKN
SSEK
SYKT
LLYG
WNKA
DMKT
ACCL
LQYC
QAFN
ASGC
FTFG
VNDE
LYMS
SWNG
AELL
SAPG
MREW
IDNC
HDFR
PHML
LVDW
NHSK
LTVD
AHEF
SLSH
HCNS
QYDC
LVTF
GVPN
KVGC
PFAS
THEL
HNSR
RDMC
RCSN
QICG
PLLQ
APER
DFPT
YCHY
KSLK
RCHD
VCCS
IGVS
LFGS
RERG
LETY
FIMT
PVMC
LWQL
SMHF
HAQV
SVGI
YRKC
ILSP
GEAK
ASRK
PMGP
DPTT
KHRN
HRLL
EHAR
GHWS
VANI
HDGM
TCTK
IVEG
MSHL
PRVK
SLWR
HMCT
SLRN
LKFV
CYNS
HDCW
ALGW
LCMK
RCYM
ALNA
SVEC
VTLG
WRTA
MTST
WNTE
GEGP

one-hybrid fitness for binding NBS DNA, 0.314:
RMVR

one-hybrid fitness for binding NBS DNA, 0.339:
QMCT

one-hybrid fitness for binding NBS DNA, 0.248:
RLWR
RCKK

one-hybrid fitness for binding NBS DNA, 0.203:
QMHY
QQNI

one-hybrid fitness for binding NBS DNA, 0.446:
QTRF

one-hybrid fitness for binding NBS DNA, 0.267:
QWQR

one-hybrid fitness for binding NBS DNA, 0.437:
QLMR

one-hybrid fitness for binding NBS DNA, 0.578:
QSHR

one-hybrid fitness for binding NBS DNA, 0.256:
QSFS

one-hybrid fitness for binding NBS DNA, 0.243:
IHKR
